Measurements published in article PMC8076676.
No constants are given. Whether binding was seen depends on the method and setting. Binding seen in cells or lysates may run through a third protein. Some results given as binding are weak or reduced against the parent protein; the word gives no strength. For some assays here: Where a sequence is shown, tags or fusion partners need not be part of it. Values belong to the molecule of their own block, whether it stands above or below them.

Sequences of proteins named here, by UniProt entry; tags and fusion partners are left off.
UniProt P05412: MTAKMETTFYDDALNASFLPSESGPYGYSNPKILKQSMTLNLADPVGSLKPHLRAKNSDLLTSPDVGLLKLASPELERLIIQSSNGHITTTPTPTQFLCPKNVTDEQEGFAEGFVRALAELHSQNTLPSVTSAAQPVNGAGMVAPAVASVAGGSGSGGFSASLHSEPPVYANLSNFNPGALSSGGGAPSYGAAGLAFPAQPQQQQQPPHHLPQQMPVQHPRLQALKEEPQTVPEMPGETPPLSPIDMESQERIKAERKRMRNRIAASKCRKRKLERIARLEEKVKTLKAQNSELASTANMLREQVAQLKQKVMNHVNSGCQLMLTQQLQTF
UniProt Q13547: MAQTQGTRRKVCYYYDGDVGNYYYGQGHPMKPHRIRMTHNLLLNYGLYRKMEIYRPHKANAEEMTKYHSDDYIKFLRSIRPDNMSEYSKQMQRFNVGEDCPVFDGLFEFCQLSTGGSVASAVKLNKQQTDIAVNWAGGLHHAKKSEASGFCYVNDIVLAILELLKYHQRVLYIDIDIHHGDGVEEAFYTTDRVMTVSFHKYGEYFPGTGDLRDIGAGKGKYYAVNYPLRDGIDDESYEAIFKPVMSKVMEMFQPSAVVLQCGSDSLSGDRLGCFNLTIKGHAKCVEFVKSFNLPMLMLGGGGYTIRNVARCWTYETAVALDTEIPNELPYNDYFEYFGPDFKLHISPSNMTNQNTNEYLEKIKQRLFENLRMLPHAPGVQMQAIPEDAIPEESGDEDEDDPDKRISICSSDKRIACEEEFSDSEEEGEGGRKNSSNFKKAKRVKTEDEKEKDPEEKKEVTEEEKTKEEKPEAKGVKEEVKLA
UniProt O15379: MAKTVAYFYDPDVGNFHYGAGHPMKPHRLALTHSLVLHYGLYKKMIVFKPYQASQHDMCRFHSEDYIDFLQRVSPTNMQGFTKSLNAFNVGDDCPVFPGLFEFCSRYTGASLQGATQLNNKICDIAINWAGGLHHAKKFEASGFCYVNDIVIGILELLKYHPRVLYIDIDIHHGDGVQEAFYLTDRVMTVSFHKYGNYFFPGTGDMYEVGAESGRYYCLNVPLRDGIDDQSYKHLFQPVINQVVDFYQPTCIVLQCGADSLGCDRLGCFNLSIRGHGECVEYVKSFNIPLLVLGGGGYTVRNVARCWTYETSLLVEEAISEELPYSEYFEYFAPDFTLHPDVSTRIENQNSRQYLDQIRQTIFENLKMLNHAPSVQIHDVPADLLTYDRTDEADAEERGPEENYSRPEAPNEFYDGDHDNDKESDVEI

Tests used:
[1] = target: T1, HA-tagged p57 (p57Kip2) (human) (UniProt P49918); experiment: co-IP; HA-p57 proteins precipitated with anti-HA antibody coupled to protein G-agarose from extracts of 293 cells co-transfected with FLAG-HDAC1 or FLAG-HDAC3; 4 h, 4°C; IP-buffer 50 mM Tris pH 7.5, 150 mM NaCl, 0.5% NP-40; HDACs detected with anti-FLAG
T1 sequence: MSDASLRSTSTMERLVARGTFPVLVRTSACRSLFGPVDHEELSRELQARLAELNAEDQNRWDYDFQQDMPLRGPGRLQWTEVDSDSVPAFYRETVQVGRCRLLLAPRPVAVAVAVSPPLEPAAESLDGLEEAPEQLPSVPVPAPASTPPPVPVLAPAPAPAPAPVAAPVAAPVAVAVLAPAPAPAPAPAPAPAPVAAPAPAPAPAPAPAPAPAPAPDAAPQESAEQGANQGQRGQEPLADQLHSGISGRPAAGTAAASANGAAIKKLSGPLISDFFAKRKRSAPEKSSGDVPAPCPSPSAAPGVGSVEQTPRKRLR

[2] = target: T2, HA-p57-Nt, aminoterminal domain of p57 (human) (UniProt P49918); experiment: as above
T2 sequence: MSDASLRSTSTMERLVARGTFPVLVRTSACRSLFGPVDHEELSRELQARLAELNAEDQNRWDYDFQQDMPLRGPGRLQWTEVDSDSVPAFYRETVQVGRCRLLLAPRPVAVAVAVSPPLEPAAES

[3] = target: T3, HA-p57-Ct, carboxyterminal domain of p57 (human) (UniProt P49918); experiment: as above
T3 sequence: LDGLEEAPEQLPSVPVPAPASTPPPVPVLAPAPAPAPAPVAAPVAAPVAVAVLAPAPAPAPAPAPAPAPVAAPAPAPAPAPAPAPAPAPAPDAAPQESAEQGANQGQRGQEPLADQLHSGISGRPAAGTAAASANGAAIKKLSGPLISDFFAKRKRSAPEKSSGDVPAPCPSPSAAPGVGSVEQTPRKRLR

[4] = target: T4, endogenous p57 of HRT-18 cells (human (endogenous in HRT-18)) (UniProt P49918); experiment: co-IP; endogenous p57 precipitated from HRT-18 extract with rabbit polyclonal p57 antibody, over night at 4°C; lysis buffer 50 mM Hepes pH 7,5, 150 mM NaCl, 1% Triton X-100, 1 mM EDTA, 1 mM EGTA, 10% Glycerol; c-Jun detected by immunoblot; rabbit IgG IP as control
T4 sequence: T1 sequence

[5] = target: FLAG-tagged c-Jun (human) (UniProt P05412); experiment: co-IP; FLAG-Jun precipitated with anti-FLAG mouse monoclonal antibody coupled to protein G-agarose from extracts of transfected 293 cells; 4 h, 4°C; IP-buffer 50 mM Tris pH 7.5, 150 mM NaCl, 0.5% NP-40; HA-p57 proteins detected by immunoblot
[6] = target: HA-tagged c-Jun (human) (UniProt P05412); experiment: co-IP; HA-Jun precipitated with anti-HA mouse monoclonal antibody coupled to protein G-agarose from extracts of transfected cells; 4 h, 4°C; IP-buffer 50 mM Tris pH 7.5, 150 mM NaCl, 0.5% NP-40; FLAG-p57 detected by immunoblot

binding [1]: binds
binding [2]: binds
binding [3]: no binding
Molecule: FLAG-HDAC1 (human histone deacetylase 1) (from UniProt Q13547 1-482) (enzyme)

binding [1]: binds
binding [2]: binds
binding [3]: no binding
Molecule: FLAG-HDAC3 (human histone deacetylase 3) (from UniProt O15379 1-428) (enzyme)

binding [4]: binds
Molecule: endogenous c-Jun of HRT-18 cells (from UniProt P05412 1-331)

binding [5]: no binding
B1: HA-p57-Ct, carboxyterminal domain of p57 (domain or fragment, UniProt P49918 126-316)
chain: T3 sequence

binding [6]: binds
B2: FLAG-tagged p57 (p57Kip2) (protein, UniProt P49918 1-316)
chain: T1 sequence

binding [5]: binds
B3: HA-tagged p57 (p57Kip2) (protein, UniProt P49918 1-316)
chain: T1 sequence

binding [5]: binds
B4: HA-p57-Nt, aminoterminal domain of p57 (domain or fragment, UniProt P49918 1-125)
chain: T2 sequence
